The supplement of paper PMC4723716
± gives the uncertainty stated by the source. Over roughly 9,900 compounds, “viability index relative to DMSO control” has its median near 1; the lowest 2% begin near 0.85. This is one part of the list.

Each compound was assayed on Plasmodium falciparum NF54 stage V gametocytes (assay: viability index relative to DMSO control (fraction); higher = less gametocyte killing). Conditions: 2.5 µM, library set: Broad Institute DOS, incubation time: 72 h.
Procedure: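 Broad DOS informer set and blood-stage-active DOS compounds screened in duplicate at 2.5 µM against P. falciparum NF54 stage V gametocytes with the serum-free one-step SaLSSA (1536-well): 72 h at 37 °C under low oxygen, then saponin lysis and MitoTracker Red CMXRos staining, with high-content imaging. Viability index = viable-object count divided by the plate mean of DMSO wells (0 = killed, about 1 = inactive).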
With OC[C@@H]1Nc2ccc(-c3cccc(F)c3)cc2[C@@H]2[C@H]1CCN2Cc1ccc(F)cc1 the viability index was 1.04 ± 0.06.
For C[C@H](NC(=O)C[C@@H]1CC[C@@H]2[C@H](COc3ccc(NC(=O)C4CCOCC4)cc3C(=O)N2C)O1)c1ccccc1, the viability index was 1.15 ± 0.033.
C/C=C/c1ccc2c(c1)[C@H]1[C@H](CCN1S(=O)(=O)c1cn(C)cn1)[C@H](CO)N2 showed a viability index of 1.06 ± 0.042.
O=C(C[C@H]1CC[C@@H]2[C@H](COC[C@@H](O)CN2C(=O)c2ccncc2)O1)Nc1ccc(-c2ccccc2)cc1 was tested, and the viability index was 1.06 ± 0.044.
In the case of CN(C)CC(=O)N[C@@H]1C=C[C@@H](CC(=O)NCc2ccc(Cl)cc2)O[C@@H]1CO, the viability index is reported as 1.06 ± 0.15.
Compound COc1ccc(C(=O)Nc2ccc3c(c2)C(=O)N(C)[C@H]2CC[C@@H](CC(=O)NCC4CC4)O[C@@H]2CO3)cc1 has a viability index of 0.952 ± 0.035.
N#C[C@H]1[C@@H](c2ccccc2)[C@@H](CO)N1C(=O)Nc1cccc(F)c1 showed a viability index of 1.06 ± 0.057.
Work on O=C(c1cnccn1)N1CC(=O)N2[C@H](C1)[C@H](c1ccc(/C=C/c3ccccc3)cc1)[C@@H]2CO yielded a viability index of 1.003 ± 0.0087.
COCC(=O)N1[C@@H]2c3cccc(=O)n3C[C@@H]2[C@@H](CO)[C@@H]1C(=O)NCc1ccccc1 gave a viability index of 1.08 ± 0.017.
Work on COCC(=O)N1CC2(C1)[C@H](c1ccccc1)[C@H](CO)N2CCC(F)(F)F yielded a viability index of 1.11 ± 0.038.
In the case of CCCC#Cc1ccc([C@@H]2[C@@H](CO)N3C(=O)CN(C(=O)c4cccnc4)C[C@H]23)cc1, the viability index is reported as 1.05 ± 0.094.
CNC[C@@H]1Oc2ccc(NC(=O)CCC(F)(F)F)cc2C(=O)N([C@@H](C)CO)C[C@@H]1C gave a viability index of 1.02 ± 0.018.
Compound COc1ccc(S(=O)(=O)N2C[C@@H](O)COC[C@@H]3O[C@H](CC(=O)N[C@@H]4CCN(Cc5ccccc5)C4)CC[C@H]32)cc1 has a viability index of 0.982 ± 0.056.
Compound COc1cccc(S(=O)(=O)Nc2ccc3c(c2)C(=O)N(C)[C@@H]2CC[C@@H](CC(=O)NCC4CCCCC4)O[C@@H]2CO3)c1 has a viability index of 0.971 ± 0.1.
COc1cccc(-c2ccc3c(c2)[C@H]2[C@H](CCN2S(=O)(=O)c2cn(C)cn2)[C@@H](CO)N3)c1 was tested, and the viability index was 0.979 ± 0.073.
OC[C@@H]1[C@H]2c3ccccc3NC[C@H]2N1CC1CCOCC1 gave a viability index of 1.04 ± 0.048.
In the case of C[C@H]1CN([C@@H](C)CO)C(=O)CCCn2nncc2CO[C@H]1CN(C)CC1CCCCC1, the viability index is reported as 0.965 ± 0.045.
CN1CCN(C(=O)C[C@@H]2CC[C@H]3[C@H](COc4ccc(NC(=O)C5CCOCC5)cc4C(=O)N3C)O2)CC1 showed a viability index of 1.05 ± 0.029.
Work on OC[C@H]1[C@H]2c3ccccc3NC[C@H]2N1Cc1ccccc1Cl yielded a viability index of 0.982 ± 0.082.
C/C=C/c1ccccc1[C@H]1[C@@H](C#N)N(c2nc(CC)cs2)[C@H]1CO was tested, and the viability index was 1.08 ± 0.12.
For C[C@@H]1CCCCO[C@H](CN(C)C(=O)CCC(F)(F)F)[C@@H](C)CN([C@@H](C)CO)C(=O)c2cc(NC(=O)C3CCCCC3)ccc2O1, the viability index was 1.06 ± 0.032.
Cc1ccccc1-c1ccc([C@@H]2[C@@H]3CN(C(=O)Cc4ccncc4)C[C@H]2N3)cc1 was tested, and the viability index was 0.921 ± 0.11.
C[C@@H]1CN([C@@H](C)CO)C(=O)CCCn2nncc2CO[C@@H]1CN(C)C(=O)Nc1ccccc1C(F)(F)F was tested, and the viability index was 0.986 ± 0.044.
O=C(NCc1ccccc1)[C@H]1[C@H](CO)[C@H]2Cn3c(cccc3=O)[C@@H]1N2C(=O)Cc1ccccn1 was tested, and the viability index was 1.01 ± 0.015.
CO[C@@H]1CN(C)C(=O)c2cc(NC(=O)Nc3cc(F)ccc3F)ccc2OC[C@H](C)NC[C@H]1C showed a viability index of 1.022 ± 0.01.
COc1ccc2c3c([nH]c2c1)[C@@H](CO)N(C[C@]31CN(Cc2cc(F)ccc2F)C1)C(=O)Nc1ccc(F)cc1 was tested, and the viability index was 0.9168 ± 0.0018.
O=C(C[C@H]1C=C[C@@H](NC(=O)Cc2cccnc2)[C@H](CO)O1)NCc1ccc2c(c1)OCO2 gave a viability index of 1.11 ± 0.064.
C/C=C/c1ccc([C@H]2[C@@H](CO)N(C(=O)CN(C)C)C23CN(C(=O)C2CCOCC2)C3)cc1 showed a viability index of 1.126 ± 0.0026.
In the case of CN1C[C@H](O)COC[C@H]2O[C@H](CC(=O)NC3CCCC3)CC[C@@H]21, the viability index is reported as 1.12 ± 0.03.
For O=C(CN1CCOCC1)N1CC2(C1)[C@H](c1ccccc1)[C@H](CO)N2Cc1cccc(F)c1, the viability index was 1.04 ± 0.025.
Compound CCNC(=O)c1cc2c(c(-c3cccc(-c4cccc(C(=O)N(C)C)c4)c3)n1)[C@@H](CCO)N([S@](=O)C(C)(C)C)C2 has a viability index of 0.99 ± 0.12.
O=C(C[C@@H]1CC[C@@H]2[C@H](COC[C@H](O)CN2Cc2ccc(F)cc2)O1)NCCc1ccccc1 showed a viability index of 0.951 ± 0.081.
Work on CCC(=O)N1Cc2cc(C(=O)N(C)C)nc(-c3cccc(-c4cncnc4)c3)c2[C@H]1CCO yielded a viability index of 1.05 ± 0.059.
Compound CCc1cnc(N2[C@@H](C#N)[C@H](c3ccc(-c4cccc(F)c4)cc3)[C@@H]2CO)s1 has a viability index of 1.04 ± 0.022.
Cc1cccc(S(=O)(=O)N2C[C@@H]3[C@H](c4ccccc42)[C@@H](CO)N3CC2CCCC2)c1 gave a viability index of 0.975 ± 0.029.
For CN1C(=O)c2cc(NC(=O)c3cnccn3)ccc2OC[C@H]2O[C@@H](CC(=O)Nc3cc(F)ccc3F)CC[C@@H]21, the viability index was 1.14 ± 0.071.
Compound O=C(C[C@@H]1C=C[C@@H](NC(=O)Cc2cccnc2)[C@H](CO)O1)NCc1ccc2c(c1)OCO2 has a viability index of 1.09 ± 0.16.
O=C(C[C@@H]1C[C@H]2c3cc(NS(=O)(=O)c4ccc(F)cc4)ccc3O[C@H]2[C@@H](CO)O1)NCCN1CCCCC1 gave a viability index of 1.02 ± 0.019.
Cc1ccccc1-c1ccc([C@H]2[C@@H](CO)N3C(=O)CN(C(=O)c4ccncc4)C[C@@H]23)cc1 was tested, and the viability index was 0.957 ± 0.02.
In the case of OC[C@H]1[C@H](c2ccc(-c3cccnc3)cc2)[C@@H]2CN(Cc3ccccn3)CCCCN12, the viability index is reported as 1.02 ± 0.081.
CCC(=O)N1C[C@@]2(C1)CN([C@@H](CO)c1c2c2ccc(OC)cc2n1C)C(=O)c1cnccn1 gave a viability index of 0.916 ± 0.066.
Work on CCc1csc(N2[C@H](CO)[C@H](c3ccccc3)[C@@H]2CN(C)C(=O)C2CCC2)n1 yielded a viability index of 1.03 ± 0.059.
For CN1CCN(C(=O)C[C@H]2CC[C@@H]3[C@H](COC[C@H](O)CN3C(=O)c3ccccc3F)O2)CC1, the viability index was 0.986 ± 0.019.
With COc1ccc2c3c([nH]c2c1)[C@@H](CO)N(C[C@]31CN(C1)C(=O)c1ccncc1)C(=O)NC(C)C the viability index was 0.97 ± 0.089.
Work on Cc1noc(C)c1S(=O)(=O)N(C)C[C@H]1Oc2c(NS(=O)(=O)c3cn(C)cn3)cccc2C(=O)N([C@H](C)CO)C[C@H]1C yielded a viability index of 1 ± 0.096.
Cc1ccccc1-c1ccc([C@@H]2[C@@H](CO)N3C(=O)CN(C(=O)c4ccncc4)C[C@H]23)cc1 gave a viability index of 0.948 ± 0.064.
With C[C@@H]1CN([C@@H](C)CO)C(=O)Cc2cc(N(C)C)ccc2O[C@H]1CN(C)C(=O)NC1CCCCC1 the viability index was 0.995 ± 0.062.
CCC(=O)N1[C@H](CO)[C@H](c2ccc(C#CC3CCCCC3)cc2)[C@@H]1CNC(C)C showed a viability index of 0.9182 ± 0.0016.
O=C(c1ccccc1F)N1CC(=O)N2[C@H](C1)[C@H](c1ccc(C#Cc3ccccc3)cc1)[C@@H]2CO was tested, and the viability index was 0.998 ± 0.091.
For O=C(Nc1ccc2c(c1)[C@@H]1C[C@H](CC(=O)N3CCc4ccccc4C3)O[C@H](CO)[C@@H]1O2)c1ccc2c(c1)OCO2, the viability index was 1.05 ± 0.05.
Compound Cc1cccc(-c2ccc([C@H]3[C@@H](CO)N4CCCCN(S(=O)(=O)c5ccccc5F)C[C@@H]34)cc2)c1 has a viability index of 1 ± 0.044.
For COc1ccc(CN2[C@@H]3CNc4ccccc4[C@@H]3[C@@H]2CO)cc1, the viability index was 1.03 ± 0.011.
In the case of CCNC(=O)C[C@H]1CC[C@H]2[C@@H](COC[C@H](O)CN2C(=O)C2CCCC2)O1, the viability index is reported as 0.978 ± 0.0086.
For CO[C@@H]1CN(C)C(=O)c2ccc(NC(=O)c3nc4ccccc4s3)cc2OC[C@H](C)N(Cc2cccnc2)C[C@@H]1C, the viability index was 1.06 ± 0.0025.
COc1cccc(-c2ccc3n(c2=O)C[C@@H]2[C@@H](CO)[C@H](C(=O)NC4Cc5ccccc5C4)N[C@H]32)c1 showed a viability index of 1.032 ± 0.0045.
CC(C)[C@H]1C(=O)N[C@H](c2ccc(F)cc2)C/C=C/C[C@@H](C)Oc2ccccc2C(=O)N1C.CC(C)[C@H]1C(=O)N[C@H](c2ccc(F)cc2)C/C=C\C[C@@H](C)Oc2ccccc2C(=O)N1C was tested, and the viability index was 1.06 ± 0.1.
Compound COC(=O)C[C@H]1CC[C@@H]2[C@H](COc3ccc(NC(=O)c4ccc(C(F)(F)F)cc4)cc3C(=O)N2C)O1 has a viability index of 1.1 ± 0.054.
With Cc1noc(C)c1S(=O)(=O)N(C)C[C@@H]1OCCCC[C@@H](C)Oc2ccc(NC(=O)CCC(F)(F)F)cc2C(=O)N([C@H](C)CO)C[C@@H]1C the viability index was 1.05 ± 0.012.
CN1C(=O)c2cc(NC(=O)Cc3cccs3)ccc2OC[C@H]2O[C@H](CC(=O)NCCCN3CCOCC3)CC[C@@H]21 gave a viability index of 1.09 ± 0.12.
Compound C[C@@H](O)C#Cc1ccc([C@H]2[C@@H](CO)N3CCCCN(C(=O)c4ccc5c(c4)OCO5)C[C@@H]23)cc1 has a viability index of 1.05 ± 0.093.
For CN1c2ccc(Br)cc2[C@H]2[C@H](CCN2C(=O)Nc2cccc(F)c2)[C@@H]1CO, the viability index was 0.9856 ± 0.0018.
C[C@H](CO)N1C[C@H](C)[C@@H](CN(C)CC2CC2)Oc2ccc(NC(=O)CCC(F)(F)F)cc2CC1=O showed a viability index of 0.979 ± 0.057.
O=C1N[C@@H](Cc2ccccc2)COCc2cn(nn2)CC[C@H]1Cc1cccc(F)c1 was tested, and the viability index was 0.979 ± 0.037.
In the case of C[C@@H]1CN([C@H](C)CO)C(=O)c2cc(-c3ccc(C#N)cc3)cnc2O[C@@H]1CN(C)Cc1cccnc1, the viability index is reported as 1.084 ± 0.0053.
C[C@H](CO)N1C[C@H](C)[C@@H](CN(C)C(=O)Nc2ccc(-c3ccccc3)cc2)OCc2ccccc2-c2ccccc2C1=O was tested, and the viability index was 1.019 ± 0.0076.
CCCNC(=O)Nc1ccc2c(c1)C(=O)N(C)C[C@H](OC)[C@@H](C)CN(C)[C@H](C)CO2 showed a viability index of 1.05 ± 0.056.
COc1ccc2c3c([nH]c2c1)[C@H](CO)N(C[C@]31CCN(CC1)C(=O)Nc1ccccc1)S(C)(=O)=O showed a viability index of 0.121 ± 0.0032.
Work on COc1cccc(-c2ccc3c(c2)O[C@H](CN(C)Cc2cccnc2)[C@H](C)CN([C@H](C)CO)S3(=O)=O)c1 yielded a viability index of 1.03 ± 0.039.
Work on COc1ccccc1CNC(=O)C[C@H]1CC[C@@H]2[C@H](COC[C@@H](O)CN2Cc2ccc3c(c2)OCO3)O1 yielded a viability index of 1.1 ± 0.044.
Work on CO[C@@H]1CN(C)C(=O)c2cc(NC(=O)c3cnccn3)ccc2OC[C@H](C)NC[C@@H]1C yielded a viability index of 1.05 ± 0.026.
Work on CCN(C[C@@H]1[C@H](c2ccccc2)[C@H](CO)N1C(=O)COC)S(C)(=O)=O yielded a viability index of 0.9806 ± 0.0067.
